Changes are numbered by the printed parent chain; changes in the protein carry UniProt numbers. The list shows a part of the results.
T1: RBFOX1 RRM RbFoxmut (Fox-RRM*) (Homo sapiens, UniProt Q9NWB1 109-208, R118D;E147R;N151S;E152T)
T1 sequence: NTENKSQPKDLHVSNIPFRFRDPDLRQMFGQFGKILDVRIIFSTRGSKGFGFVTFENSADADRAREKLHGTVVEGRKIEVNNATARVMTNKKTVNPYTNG

B1: GGCAAAG (DNA:RNA)
RNA: GGGAGACCGGAAUUCAGAUUGUCCGGCAAAGUUAAAUCCCGUCGUAGCCACCA
DNA 1: CAATCTGAATTCCGGTCTCCC
DNA 2: TGGTGGCTACGACGGGATT
B2: GAGUUGG (DNA:RNA)
RNA: B1 RNA with G26A, C27G, A28U, A29U, A30G
DNA 1: CAATCTGAATTCCGGTCTCCC
DNA 2: TGGTGGCTACGACGGGATT
B3: CCCUGGA (DNA:RNA)
RNA: B1 RNA with G25C, G26C, A28U, A29G, A30G, G31A
DNA 1: CAATCTGAATTCCGGTCTCCC
DNA 2: TGGTGGCTACGACGGGATT
B4: AGAGACC (DNA:RNA)
RNA: B1 RNA with G25A, C27A, A28G, A30C, G31C
DNA 1: CAATCTGAATTCCGGTCTCCC
DNA 2: TGGTGGCTACGACGGGATT
B5: AUUCUAG (DNA:RNA)
RNA: B1 RNA with G25A, G26U, C27U, A28C, A29U
DNA 1: CAATCTGAATTCCGGTCTCCC
DNA 2: TGGTGGCTACGACGGGATT
B6: CACCGCC (DNA:RNA)
RNA: B1 RNA with G25C, G26A, A28C, A29G, A30C, G31C
DNA 1: CAATCTGAATTCCGGTCTCCC
DNA 2: TGGTGGCTACGACGGGATT
B7: CGAUAGA (DNA:RNA)
RNA: B1 RNA with G25C, C27A, A28U, A30G, G31A
DNA 1: CAATCTGAATTCCGGTCTCCC
DNA 2: TGGTGGCTACGACGGGATT
B8: UUGAGCA (DNA:RNA)
RNA: B1 RNA with G25U, G26U, C27G, A29G, A30C, G31A
DNA 1: CAATCTGAATTCCGGTCTCCC
DNA 2: TGGTGGCTACGACGGGATT
B9: UUCUAAU (DNA:RNA)
RNA: B1 RNA with G25U, G26U, A28U, G31U
DNA 1: CAATCTGAATTCCGGTCTCCC
DNA 2: TGGTGGCTACGACGGGATT
B10: CGCAACC (DNA:RNA)
RNA: B1 RNA with G25C, A30C, G31C
DNA 1: CAATCTGAATTCCGGTCTCCC
DNA 2: TGGTGGCTACGACGGGATT
B11: ACCUUAA (DNA:RNA)
RNA: B1 RNA with G25A, G26C, A28U, A29U, G31A
DNA 1: CAATCTGAATTCCGGTCTCCC
DNA 2: TGGTGGCTACGACGGGATT
B12: GCUCAUU (DNA:RNA)
RNA: B1 RNA with G26C, C27U, A28C, A30U, G31U
DNA 1: CAATCTGAATTCCGGTCTCCC
DNA 2: TGGTGGCTACGACGGGATT
B13: UAAUCGC (DNA:RNA)
RNA: GGGAGACCGGAAUUCAGAUUGUCCUAAUCGCUUAAAUCCCGUCGUAGCCACCA
DNA 1: CAATCTGAATTCCGGTCTCCC
DNA 2: TGGTGGCTACGACGGGATT
B14: ACUGAUA (DNA:RNA)
RNA: B1 RNA with G25A, G26C, C27U, A28G, A30U, G31A
DNA 1: CAATCTGAATTCCGGTCTCCC
DNA 2: TGGTGGCTACGACGGGATT
B15: CGUACCC (DNA:RNA)
RNA: B1 RNA with G25C, C27U, A29C, A30C, G31C
DNA 1: CAATCTGAATTCCGGTCTCCC
DNA 2: TGGTGGCTACGACGGGATT
B16: CCAAAUA (DNA:RNA)
RNA: B1 RNA with G25C, G26C, C27A, A30U, G31A
DNA 1: CAATCTGAATTCCGGTCTCCC
DNA 2: TGGTGGCTACGACGGGATT
B17: AGUUGAC (DNA:RNA)
RNA: B1 RNA with G25A, C27U, A28U, A29G, G31C
DNA 1: CAATCTGAATTCCGGTCTCCC
DNA 2: TGGTGGCTACGACGGGATT
B18: UCGAAGG (DNA:RNA)
RNA: B1 RNA with G25U, G26C, C27G, A30G
DNA 1: CAATCTGAATTCCGGTCTCCC
DNA 2: TGGTGGCTACGACGGGATT
B19: CCGCAGA (DNA:RNA)
RNA: B1 RNA with G25C, G26C, C27G, A28C, A30G, G31A
DNA 1: CAATCTGAATTCCGGTCTCCC
DNA 2: TGGTGGCTACGACGGGATT
B20: GGGAUGC (DNA:RNA)
RNA: B1 RNA with C27G, A29U, A30G, G31C
DNA 1: CAATCTGAATTCCGGTCTCCC
DNA 2: TGGTGGCTACGACGGGATT

These binders were tested against T1, RBFOX1 RRM RbFoxmut (Fox-RRM*) (assay: EMSA; HiTS-Eq, 1 nM pool, 10 min; buffer printed only for the single-RNA assays: 10 mM Tris pH 7.5, 150 mM NaCl, 3.4 mM EDTA, 0.001% NP-40, 30 C). Conditions: tags: His6 N-terminal (pET28a); label: 5' 32P.
Method in brief: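 Purified RbFox RRM, wild type or mutant, was incubated for 10 min in 50 µL with 1 nM of a 5′-radiolabelled RNA pool carrying 7 randomized nucleotides, whose flanks were annealed to DNA oligonucleotides, over a series of increasing protein concentrations. Unbound RNA was resolved on 8% native PAGE, cut out, reverse-transcribed, barcoded by PCR and sequenced on an Illumina HiSeq 2500. Relative association constants were derived from changes in read counts for each RNA species versus the control reaction and normalised to the cognate motif.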

First: B1
Second: B2
The binding signal of the first is lower: 0.0637 KA relative to UGCAUGU for the first, 0.0898 KA relative to UGCAUGU for the second.

First: B3
Second: B4
The binding signal of the first is higher: 0.0858 KA relative to UGCAUGU for the first, 0.0712 KA relative to UGCAUGU for the second.

First: B5
Second: B6
The binding signal of the first is lower: 0.123 KA relative to UGCAUGU for the first, 0.145 KA relative to UGCAUGU for the second.

First: B7
Second: B8
The binding signal of the first is lower: 0.101 KA relative to UGCAUGU for the first, 0.152 KA relative to UGCAUGU for the second.

Compared with B9, B10 is lower in binding signal: 0.0754 KA relative to UGCAUGU for the first, 0.0488 KA relative to UGCAUGU for the second.

First: B11
Second: B12
The binding signal of the first is higher: 0.129 KA relative to UGCAUGU for the first, 0.0844 KA relative to UGCAUGU for the second.

Compared with B13, B14 is higher in binding signal: 0.0653 KA relative to UGCAUGU for the first, 0.0866 KA relative to UGCAUGU for the second.

Compared with B15, B16 is higher in binding signal: 0.0393 KA relative to UGCAUGU for the first, 0.111 KA relative to UGCAUGU for the second.

First: B17
Second: B18
The binding signal of the first is lower: 0.0906 KA relative to UGCAUGU for the first, 0.0925 KA relative to UGCAUGU for the second.

First: B19
Second: B20
The binding signal of the first is lower: 0.111 KA relative to UGCAUGU for the first, 0.262 KA relative to UGCAUGU for the second.

Source: paper PMC9911399, “Two distinct binding modes provide the RNA-binding protein RbFox with extraordinary sequence specificity”
